Holding throughout (assay): co-IP; V5H6-tagged FRQ (wild type or mutant) pulled down with V5 agarose from Neurospora lysate (cultures in the light, 25 °C); 50 mM Hepes pH 7.4, 137 mM NaCl, 10% glycerol, 0.4% NP-40; 4 °C, 2 h; Western blot with FRQ, FRH, WC-1 and WC-2 antibodies
Assay [1] addresses T1, FREQUENCY (FRQ), wild type, tagged with V5H6 (Neurospora crassa) (UniProt P19970).
T1 sequence: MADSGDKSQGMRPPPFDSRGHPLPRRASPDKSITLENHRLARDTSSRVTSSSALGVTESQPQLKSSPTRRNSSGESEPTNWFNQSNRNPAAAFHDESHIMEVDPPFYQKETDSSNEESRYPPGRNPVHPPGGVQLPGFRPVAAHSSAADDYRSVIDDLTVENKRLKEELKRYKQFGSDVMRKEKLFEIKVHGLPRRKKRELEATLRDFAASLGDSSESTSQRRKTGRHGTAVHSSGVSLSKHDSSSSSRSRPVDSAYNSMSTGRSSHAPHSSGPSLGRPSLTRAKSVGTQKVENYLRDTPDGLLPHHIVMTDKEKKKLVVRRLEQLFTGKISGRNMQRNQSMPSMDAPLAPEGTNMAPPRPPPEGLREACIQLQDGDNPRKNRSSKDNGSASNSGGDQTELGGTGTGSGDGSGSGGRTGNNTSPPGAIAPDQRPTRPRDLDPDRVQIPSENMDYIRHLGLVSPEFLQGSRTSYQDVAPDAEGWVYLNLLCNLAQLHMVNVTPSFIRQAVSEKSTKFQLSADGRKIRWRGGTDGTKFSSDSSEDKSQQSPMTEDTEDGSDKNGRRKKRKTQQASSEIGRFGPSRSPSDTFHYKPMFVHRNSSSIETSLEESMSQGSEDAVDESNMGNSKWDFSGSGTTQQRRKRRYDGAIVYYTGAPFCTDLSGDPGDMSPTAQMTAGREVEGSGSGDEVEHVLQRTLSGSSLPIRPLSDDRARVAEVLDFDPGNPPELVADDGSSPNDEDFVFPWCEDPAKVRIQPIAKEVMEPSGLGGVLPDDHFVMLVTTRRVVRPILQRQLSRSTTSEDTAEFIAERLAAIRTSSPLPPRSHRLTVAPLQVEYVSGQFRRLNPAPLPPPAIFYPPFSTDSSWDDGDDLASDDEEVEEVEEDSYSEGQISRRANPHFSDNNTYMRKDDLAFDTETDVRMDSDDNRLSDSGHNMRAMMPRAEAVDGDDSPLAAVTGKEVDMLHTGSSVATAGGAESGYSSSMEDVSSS

Chains of the proteins cited; added tags and fusions are not shown.
UniProt Q01371: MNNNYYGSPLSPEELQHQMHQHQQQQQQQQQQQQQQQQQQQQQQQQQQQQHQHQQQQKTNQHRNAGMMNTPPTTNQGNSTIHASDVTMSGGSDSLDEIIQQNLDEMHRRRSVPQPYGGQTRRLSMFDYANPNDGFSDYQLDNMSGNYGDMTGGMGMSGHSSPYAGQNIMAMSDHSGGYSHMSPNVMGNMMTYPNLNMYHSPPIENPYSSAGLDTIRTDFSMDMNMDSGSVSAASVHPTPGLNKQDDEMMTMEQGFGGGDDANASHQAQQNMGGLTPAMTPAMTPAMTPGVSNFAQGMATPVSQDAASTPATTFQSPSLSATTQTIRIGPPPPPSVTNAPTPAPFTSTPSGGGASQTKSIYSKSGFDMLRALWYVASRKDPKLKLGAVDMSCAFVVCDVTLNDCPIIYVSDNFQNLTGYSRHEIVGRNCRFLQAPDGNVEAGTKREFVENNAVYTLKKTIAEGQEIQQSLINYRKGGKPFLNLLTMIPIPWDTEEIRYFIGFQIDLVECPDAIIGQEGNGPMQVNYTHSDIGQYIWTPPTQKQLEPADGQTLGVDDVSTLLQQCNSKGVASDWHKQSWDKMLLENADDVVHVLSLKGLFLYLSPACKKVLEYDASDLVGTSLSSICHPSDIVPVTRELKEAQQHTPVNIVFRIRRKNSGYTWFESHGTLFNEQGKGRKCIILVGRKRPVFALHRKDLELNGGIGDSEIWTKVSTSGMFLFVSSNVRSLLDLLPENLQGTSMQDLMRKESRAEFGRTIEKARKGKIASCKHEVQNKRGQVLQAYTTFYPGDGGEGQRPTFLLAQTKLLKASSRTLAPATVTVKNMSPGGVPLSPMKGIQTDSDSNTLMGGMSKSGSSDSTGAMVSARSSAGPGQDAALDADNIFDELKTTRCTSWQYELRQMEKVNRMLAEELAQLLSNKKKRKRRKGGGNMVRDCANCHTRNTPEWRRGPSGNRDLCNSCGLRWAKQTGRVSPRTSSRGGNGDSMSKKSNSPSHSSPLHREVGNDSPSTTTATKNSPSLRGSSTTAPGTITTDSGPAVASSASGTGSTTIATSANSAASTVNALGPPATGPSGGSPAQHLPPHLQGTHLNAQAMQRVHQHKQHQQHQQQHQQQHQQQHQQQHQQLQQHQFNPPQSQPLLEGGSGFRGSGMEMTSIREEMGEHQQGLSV

In assay [2] the target is T2, FRQ Δ250–310, V5H6-tagged (Neurospora crassa) (UniProt P19970).
T2 sequence: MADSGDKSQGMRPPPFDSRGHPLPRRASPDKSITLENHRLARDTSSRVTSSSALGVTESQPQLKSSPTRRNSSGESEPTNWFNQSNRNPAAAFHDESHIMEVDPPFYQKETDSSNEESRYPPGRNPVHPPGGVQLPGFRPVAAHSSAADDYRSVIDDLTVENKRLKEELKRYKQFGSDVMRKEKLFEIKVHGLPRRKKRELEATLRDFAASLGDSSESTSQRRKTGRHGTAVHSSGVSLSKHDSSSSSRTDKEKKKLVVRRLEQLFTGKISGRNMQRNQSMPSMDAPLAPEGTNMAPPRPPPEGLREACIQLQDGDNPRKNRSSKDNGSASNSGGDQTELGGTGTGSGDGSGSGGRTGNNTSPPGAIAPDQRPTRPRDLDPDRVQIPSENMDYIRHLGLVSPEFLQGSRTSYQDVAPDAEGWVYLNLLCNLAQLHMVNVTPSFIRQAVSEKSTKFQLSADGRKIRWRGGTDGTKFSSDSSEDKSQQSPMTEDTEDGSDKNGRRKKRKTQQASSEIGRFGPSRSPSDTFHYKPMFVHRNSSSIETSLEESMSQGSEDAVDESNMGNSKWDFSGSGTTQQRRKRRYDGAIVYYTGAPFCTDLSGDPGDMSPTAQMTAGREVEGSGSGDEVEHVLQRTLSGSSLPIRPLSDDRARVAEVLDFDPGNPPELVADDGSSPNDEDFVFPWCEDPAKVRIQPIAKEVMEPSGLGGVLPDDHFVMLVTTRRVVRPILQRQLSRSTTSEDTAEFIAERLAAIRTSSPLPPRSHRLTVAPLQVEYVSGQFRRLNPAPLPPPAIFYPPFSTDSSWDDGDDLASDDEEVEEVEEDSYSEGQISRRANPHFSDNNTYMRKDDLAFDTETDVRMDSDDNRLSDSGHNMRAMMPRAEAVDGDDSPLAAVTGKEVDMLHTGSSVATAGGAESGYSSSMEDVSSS

Assay [3] concerns the target T3, FRQ 629–989, V5H6-tagged (Neurospora crassa) (UniProt P19970).
T3 sequence: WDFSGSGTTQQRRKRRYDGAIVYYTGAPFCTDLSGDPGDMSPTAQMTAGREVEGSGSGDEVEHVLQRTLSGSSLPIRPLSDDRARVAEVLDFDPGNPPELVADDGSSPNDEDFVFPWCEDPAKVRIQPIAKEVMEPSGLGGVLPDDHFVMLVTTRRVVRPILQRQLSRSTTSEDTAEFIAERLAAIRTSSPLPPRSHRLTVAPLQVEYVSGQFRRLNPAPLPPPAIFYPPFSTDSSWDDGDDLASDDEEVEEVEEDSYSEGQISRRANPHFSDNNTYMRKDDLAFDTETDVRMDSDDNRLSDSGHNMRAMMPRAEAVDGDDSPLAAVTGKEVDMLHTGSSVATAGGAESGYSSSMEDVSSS

Results are given in words; binding and its absence hold for the method and conditions named. Binding seen in cells or lysates may run through a third protein. Some entries that bind do so weakly or less than the wild type. Sequences can lack the tags named with a protein.

Consider “White Collar-1 (WC-1) (from UniProt Q01371 1-1167)”, for which the binding result in assay [1] is reported as “binds”; in assay [2], “binds”; in assay [3], “no binding”.

The record behind these values is PMC10320511.
